From PubChem BioAssay (NCI)
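96-well plates; 48 h exposure; 5 concentrations. Endpoints by linear interpolation between flanking doses. Not reached: highest tested concentration assigned. GI50 = concentration required for 50% inhibition of growth. The concentration for full growth arrest is given as TGI.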 Calls of active or inactive are those of the source. No stated cut-off is given here; in the data, active means GI50 below about 0.43 µM; inactive means the rest.

Each molecule was assayed on NCI-H322M lung (assay: inhibition of tumour cell growth, NCI panel, 48 h).

How did the GI50 turn out when `COC(=O)C1=C(O)[C@H](C(=O)OC)C2(O)[C@@H](C(=O)OC)[C@H]1C[C@@H](c1ccc(OC(=O)n3ccnc3)cc1)[C@@H]2C(=O)OC` was run?
The GI50 was 21.6 µM.

And the TGI?
Its TGI is over 50 µM.

`COC1CC(C)(N)C(O)C(C)O1` (centres undefined) was tested. Which TGI did it give?
Its TGI is over 100 µM.

With `COc1ccc(C=Nc2c(O)ccc3ccccc23)cc1OC` as the molecule, how does the TGI read?
The TGI was over 100 µM.

Which GI50 does the source give for `CCN(CC)CCOc1ccc(/C=C2\CC3C4CC=C5C[C@@H](N6CCCC6)CC[C@]5(C)C4CC[C@]3(C)[C@H]2OC(C)=O)cc1OC` (some centres undefined) here?
Its GI50 is 0.861 µM.

What about the TGI of the same molecule?
The TGI was 2.47 µM.

With `CNc1nc(SC)nc2c1c(N)nn2C` as the molecule, how does the TGI read?
The TGI was over 100 µM.

How did the TGI turn out when `COc1ccc2c(c1)c(=O)c1c(NCCN(C)C)ccc3c(=O)n(CCN(C)C)c(=O)n2c31` was run?
The TGI was 0.6 µM.

With `CCCCCCc1nn2c(-c3ccncc3)nnc2s1` as the molecule, how does the TGI read?
Its TGI is over 10 µM.

For `FC(F)(F)c1ccc(-c2cncn2-c2ccccc2)cc1`, which GI50 is on record?
Its GI50 is 17 µM.

And the TGI?
The TGI was 46.1 µM.

For `CCc1n[nH]c(=O)n1NC(=O)CCCC(=O)O`, which TGI is on record?
The TGI was over 100 µM.

Which TGI does the source give for `c1ccc2c(c1)SC1=Nc3sc4ccccc4[n+]3CN12` here?
Its TGI is over 100 µM.

Which TGI does the source give for `O=c1[nH]nc(Cc2ccccc2)n1/N=C\CC/C=N\n1c(Cc2ccccc2)n[nH]c1=O` here?
The TGI was over 100 µM.

`Cc1cccc(C)c1NC(=O)CCC(=O)CC(=O)C(C)C` was tested. Which TGI did it give?
The TGI was over 100 µM.

With `CC(=NC1CCCCC1)c1ccccc1O` as the molecule, how does the TGI read?
The TGI was over 100 µM.

With `CCOC(=O)c1cc2c(c3ccsc13)C1(C)CCC3c4ccc(OC)cc4CCC3C1C2` (centres undefined) as the molecule, how does the GI50 read?
Its GI50 is over 100 µM.

And the TGI?
Its TGI is over 100 µM.

With `CCCCCCC1NN(C(C)=O)C(CCCCCC)NN1C(C)=O` (centres undefined) as the molecule, how does the TGI read?
Its TGI is over 100 µM.

How did the TGI turn out when `O=C(Nc1ccn(CCOC(=O)c2ccccc2)c(=O)n1)c1ccccc1` was run?
Its TGI is over 100 µM.

`Cc1nn2c(C(=O)N/N=C/c3ccccc3O)c(C)nc2s1` was tested. Which TGI did it give?
The TGI was over 100 µM.

For `CN([O-])c1nc(N(C)[O-])nc(N2CCOCC2)n1.CN([O-])c1nc(N(C)[OH2+])nc(N2CCOCC2)n1.[Fe+3]`, which GI50 is on record?
The GI50 was 79.3 µM.

And the TGI?
Its TGI is over 100 µM.

For `O=C(/C=C1\C[C@H]2C=Nc3ccccc3C(=O)N2C1)NCCCNC(=O)/C=C1\C[C@H]2C=Nc3ccccc3C(=O)N2C1`, which TGI is on record?
Its TGI is 31.1 µM.

With `COc1cccc([C@@]2(O)c3c(ccc(O)c3OC)[C@H]2OC)c1OC` as the molecule, how does the TGI read?
Its TGI is over 100 µM.

With `CN(C)CCNc1ccc2c(=O)n(CCN(C)C)c(=O)n3c4ccccc4c(=O)c1c23` as the molecule, how does the TGI read?
The TGI was 0.97 µM.

For `O=C(C[Si](CC(=O)c1cccc(C(F)(F)F)c1)CC(=O)c1cccc(C(F)(F)F)c1)c1cccc(C(F)(F)F)c1`, which GI50 is on record?
The GI50 was 4.09 µM.

And the TGI?
Its TGI is 15.6 µM.

With `COC(=O)[C@]12CSCN1C(=O)C(C(C)=O)=NN2C(=O)[C@](OC)(c1ccccc1)C(F)(F)F` as the molecule, how does the TGI read?
The TGI was over 100 µM.

How did the TGI turn out when `Cn1cc(NC(=O)[C@H]2CCC(N)=N2)cc1C(=O)NCCC(=N)N` was run?
The TGI was over 100 µM.

With `COC(=O)CC1C(C)(C)C(=O)C2CC3=C4CC(=O)OC(c5ccoc5)C4(C)CCC3C1(C)C2=O` (centres undefined) as the molecule, how does the TGI read?
Its TGI is over 100 µM.

With `CC(=O)OC/C=C(\C)CCC(Br)C(C)(C)Br` (centres undefined) as the molecule, how does the TGI read?
The TGI was over 10 µM.

For `Nc1ccn(C2OC(CO)C3[O][Sn]([c]4ccccc4)([c]4ccccc4)[O]C32)c(=O)n1` (centres undefined), which GI50 is on record?
The GI50 was 46.8 µM.

With `CC(C)[Si]1(C(C)C)OCC2OC(N3C(=O)NC(=O)C[C@@H]3C(O)c3ccccc3)CC2O[Si](C(C)C)(C(C)C)O1` (some centres undefined) as the molecule, how does the TGI read?
Its TGI is 28.3 µM.

With `C/C=N\n1c(C)n[nH]c1=O` as the molecule, how does the TGI read?
The TGI was over 100 µM.

How did the TGI turn out when `O=C(/C=C/c1ccc(OCCSCCCCCCCCCCSCCOc2ccc(/C=C/C(=O)c3ccc(Cl)cc3)cc2)cc1)c1ccc(Cl)cc1` was run?
The TGI was over 100 µM.

How did the TGI turn out when `CC(C)c1cc(C(F)(F)F)nc(NNc2nc(C(C)C)cc(C(F)(F)F)n2)n1` was run?
Its TGI is over 100 µM.

For `Nc1nc2c(ncn2CC2CCC(CO)C2)c(=O)[nH]1` (centres undefined), which TGI is on record?
Its TGI is over 100 µM.

How did the TGI turn out when `COc1ccc(-c2cc(-c3ccc(Nc4ccnc5cc(C(F)(F)F)ccc45)cc3)nc(N)c2C#N)cc1` was run?
Its TGI is over 100 µM.

What does the source list for `COc1ccc2nc3cc(Cl)ccc3c(NCCCCCN3CCCCC3)c2c1`?
GI50: 0.082 µM; TGI: 3.32 µM

Which results are given for `CC(C)[C@]12O[C@H]1[C@@H]1O[C@]13[C@]1(O[C@H]1C[C@H]1C4=C(CC[C@@]13C)C(=O)OC4)[C@@H]2OC(=O)CN(C)C`?
GI50: 0.0254 µM; TGI: > 100 µM

Which results are given for `COc1cccc(/C=N/Nc2ncnc3c2cnn3-c2cccc(OC)c2)c1`?
GI50: > 25 µM; TGI: > 25 µM

For `Brc1ccc(N=NN2CCCC2)cc1`, which TGI is on record?
Its TGI is over 100 µM.

How did the TGI turn out when `COc1ccc(OC)c(N2C(=O)/C(=C\c3ccccc3)SC2c2cc(OC)c(OC)c(OC)c2)c1` (centres undefined) was run?
Its TGI is over 100 µM.

`CC(=O)NC1C(OCc2ccccc2)OC(CO)C(O)C1OCC(=O)N1CCCC1C(=O)N[C@@H](CCC(=O)NCCNCCNc1c2ccccc2nc2cccc([N+](=O)[O-])c12)C(N)=O` (some centres undefined) was tested. Which TGI did it give?
Its TGI is 35.8 µM.

How did the TGI turn out when `S=C1NCN2CCN(CC2)CNC(=S)C(=S)NCN2CCN(CC2)CNC1=S` was run?
Its TGI is over 100 µM.

`C[C@@]1(CO)O[C@H]1CCC#C[Si](C)(C)C` was tested. Which outcome did it give?
The outcome was “inactive”.

With `CC(C)=CC1CCc2ccccc2N1S(=O)(=O)c1ccc(C)cc1` (centres undefined) as the molecule, how does the TGI read?
Its TGI is over 23.7 µM.

`O=C1OC2C(O)COC2(O)C1(O)Cc1c[nH]c2ccccc12` (centres undefined) was tested. Which TGI did it give?
The TGI was over 100 µM.

How did the TGI turn out when `N#CC1(C#N)C2=C(CCCC2)NC(c2ccc(Br)cc2)C1(C#N)C#N` (centres undefined) was run?
The TGI was 37.1 µM.

Which TGI does the source give for `O=C(/C(=C\c1ccccc1)CN1CCOCC1)c1ccc(Br)cc1` here?
Its TGI is 21.4 µM.

`O=C(N/N=C\c1c(O)ccc2ccccc12)C1CC1` was tested. Which GI50 did it give?
Its GI50 is 3.46 µM.

What about the TGI of the same molecule?
Its TGI is 65.1 µM.

How did the TGI turn out when `CN1CCc2c(sc3ncn(N)c(=N)c23)C1` was run?
Its TGI is over 100 µM.

How did the TGI turn out when `CCCCC#COS(=O)(=O)c1ccc(C)cc1` was run?
Its TGI is over 100 µM.

Which TGI does the source give for `CCCCOC(=O)NC(Nc1ccc(S(N)(=O)=O)cc1)(C(F)(F)F)C(F)(F)F` here?
The TGI was over 100 µM.

Which TGI does the source give for `O=c1[nH]c(=S)[nH]c2c1C(c1ccc(Cl)cc1)c1c([nH]c(=S)[nH]c1=O)O2` here?
Its TGI is over 100 µM.

How did the TGI turn out when `COc1cccc(C2C(C(=O)O)=C(CO)Oc3cc4c(cc32)OCO4)c1OC` (centres undefined) was run?
Its TGI is over 100 µM.

How did the TGI turn out when `CN1CCN(CC(=O)Nc2cccc3ccccc23)CC1` was run?
Its TGI is over 100 µM.

Which results are given for `CCOC(=O)C1=C(C)N(c2ccc(OC)cc2)C2(O)C=CC(=O)C3C(=O)N(c4ccccc4)C(=O)C132` (centres undefined)?
GI50: 4.35 µM; TGI: 14.3 µM

Which TGI does the source give for `Cc1cc(C)c2cc(N)c(Cl)nc2n1` here?
The TGI was over 100 µM.

With `COc1ccc2c(c1)C(=O)c1c-2n(CCCNCCO)c(=O)c2ccccc12` as the molecule, how does the GI50 read?
The GI50 was 0.309 µM.

What about the TGI of the same molecule?
The TGI was 2.33 µM.

`CCOC(=O)C1C(=O)C(C(=O)OCC)C(c2ccccc2)N(C)C1c1ccccc1` (centres undefined) was tested. Which TGI did it give?
Its TGI is over 100 µM.

With `CO[C@H](C(=O)[C@@H](O)[C@@H](C)O)[C@@H]1Cc2cc3cc(O[C@H]4C[C@@H](O[C@H]5C[C@@H](O)[C@H](O)C(C)O5)[C@H](O)C(C)(O)O4)cc(O)c3c(O)c2C(=O)[C@H]1O[C@H]1C[C@@H](O[C@H]2C[C@@H](O[C@H]3C[C@@H](OC)[C@H](O)C(C)O3)[C@@H](O)C(C)O2)[C@H](O)C(C)O1` (some centres undefined) as the molecule, how does the GI50 read?
The GI50 was 0.798 µM.

What about the TGI of the same molecule?
Its TGI is over 16.8 µM.

With `COc1cc(-c2cc(=O)c3c(OC)c(OC)c(OC)c(OC)c3o2)cc(OC)c1OC` as the molecule, how does the TGI read?
The TGI was over 100 µM.

`O=C(O)c1ccccc1CC1Cc2ccccc2C1` was tested. Which TGI did it give?
Its TGI is over 100 µM.

For `Nc1nc(N)c2cc(CNc3ccc(C(=O)NC(CC(=O)O)C(=O)O)cc3)ccc2n1` (centres undefined), which GI50 is on record?
Its GI50 is 0.406 µM.

And the TGI?
The TGI was over 100 µM.

For `CCCCCCCCC1=CCC(CN(C)C)C1=O` (centres undefined), which TGI is on record?
The TGI was over 100 µM.

How did the TGI turn out when `O=C(CC1(O)C(=O)Nc2c(Cl)cc(Cl)cc21)c1ccco1` (centres undefined) was run?
The TGI was over 100 µM.

With `Nc1cc2c(nc3c4ccccc4c(N)cc3[n+]2-c2cccc3ccccc23)c2ccccc12` (tested in a mixture with another compound) as the molecule, how does the TGI read?
The TGI was 18.9 µM.

What does the source list for `Cc1c2cnccc2c(C)c2c1c1cc(CO)ccc1n2C`?
GI50: 0.24 µM; TGI: 1.71 µM

Which TGI does the source give for `Oc1ccc(N=Cc2ccc(C=Nc3ccc(O)cc3)cc2)cc1` here?
The TGI was 30 µM.

For `Cc1cccc(C)c1NC(=O)C(=O)C(C#N)c1ccccc1Cl` (centres undefined), which TGI is on record?
The TGI was over 100 µM.

Which TGI does the source give for `N#Cc1c(-c2ccccc2)c(C#N)c(=S)n(C2OC(CO)C(O)C(O)C2O)c1N` (centres undefined) here?
The TGI was over 100 µM.

For `Cc1c(C(=O)O)n(-c2ccc(Cl)cc2)c2ncnc(N)c12`, which GI50 is on record?
The GI50 was 24.2 µM.

And the TGI?
The TGI was 76.8 µM.
